# In the supplement of paper PMC4166925:
# ± gives the standard deviation of the averaged measurements. In all, about 33,000 sequences were measured (“E-score (dimensionless, -0.5 to 0.5)”: median about -0.049, highest 2% from about 0.37 on). This is one part of the list.
# System: T1, PmTbr T-box DNA-binding domain (GST fusion)
# T1 sequence: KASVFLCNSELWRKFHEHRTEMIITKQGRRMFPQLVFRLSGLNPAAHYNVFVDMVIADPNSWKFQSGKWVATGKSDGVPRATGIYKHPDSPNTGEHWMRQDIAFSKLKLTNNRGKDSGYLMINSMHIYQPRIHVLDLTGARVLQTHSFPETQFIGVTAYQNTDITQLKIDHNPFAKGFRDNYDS
# Assay: PBM E-score of 8-mer (E-score (dimensionless, -0.5 to 0.5)); Tbr is Tbrain of the sea star Patiria miniata (Pm) or the sea urchin Strongylocentrotus purpuratus (Sp); higher = stronger binding preference; most listed sequences are background and not binding sites
# Settings: the construct has about 5 more residues each side
# Summary of the method: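 Universal Agilent oligonucleotide arrays, made double-stranded by primer extension, were incubated with 200 nM GST-fused Tbr T-box DNA-binding domain in PBS (pH 7.5). The protein was expressed in BL21 E. coli at 20 °C and purified by glutathione affinity chromatography. After scanning and quantification, the Universal PBM Analysis Suite assigned an enrichment E-score to each ungapped 8-mer, averaged over duplicate arrays.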
row,Sequence,PBM E-score of 8-mer
1,CCTTAAAG,-0.0973 ± 0.022
2,ATACAGAA,-0.0182 ± 0.007
3,CATGGCGG,-0.215 ± 0.019
4,CCGTGGCG,-0.0151 ± 0.064
5,CATTTAGG,0.0158 ± 0.075
6,AGCTGGTG,0.0595 ± 0.015
7,GCTTCGGA,-0.0828 ± 0.0049
8,CCGTTCGA,-0.159 ± 0.081
9,CGCGGCTC,0.0723 ± 0.11
10,CTGCAGAA,-0.158 ± 0.056
11,GATTATGA,-0.224 ± 0.08
12,CAAGTTCA,0.114 ± 0.007
13,CAGATGCA,-0.0618 ± 0.0046
14,AACCACGA,-0.00436 ± 0.038
15,CATAACCC,-0.215 ± 0.015
16,AGAAACAA,-0.0717 ± 0.076
17,CTTGCAAA,0.148 ± 0.0012
18,GAATTGTA,-0.0474 ± 0.078
19,CCCGCCGA,-0.191 ± 0.034
20,ACATTAAG,-0.125 ± 0.11
21,ACCGGTTA,-0.0129 ± 0.037
22,GGAGGCTA,-0.209 ± 0.016
23,CCCAAGGC,-0.117 ± 0.025
24,GTTGGGTA,-0.23 ± 0.042
25,ATAATCGC,0.0767 ± 0.055

row,Sequence,PBM E-score of 8-mer
1,CCAAAAAG,-0.0846 ± 0.0049
2,GTGTTATA,0.426 ± 0.013
3,ACCACGGG,0.0879 ± 0.013
4,AATTTTAC,-0.124 ± 0.06
5,GCCCCCCC,-0.189 ± 0.0088
6,AATTAGCT,-0.0843 ± 0.043
7,CTGCGGAA,-0.0961 ± 0.0056
8,AGCGCGAA,0.392 ± 0.014
9,GATATTCA,-0.113 ± 0.047
10,AGGGTTCG,-0.0962 ± 0.01
11,TCCTTGAA,-0.335 ± 0.062
12,ACGGATAT,-0.185 ± 0.038
13,CCAGGTCC,-0.114 ± 0.039
14,TATTGACA,0.318 ± 0.041
15,ACAGCCCT,-0.0731 ± 0.056
16,CGACATCG,0.0779 ± 0.0035
17,GTTATCTA,0.0556 ± 0.017
18,CTCTCACC,0.383 ± 0.0077
19,GACCAGCA,-0.175 ± 0.046
20,AACACCGT,0.329 ± 0.0059
21,CCCTCTTA,-0.135 ± 0.056
22,CAACGTAC,-0.0161 ± 0.041
23,AAGGCTTG,-0.18 ± 0.019
24,CCAGCGGA,-0.0366 ± 0.07
25,ACTAAATA,-0.147 ± 0.053

row,Sequence,PBM E-score of 8-mer
1,CGATAGCG,0.231 ± 0.063
2,ACGCATGC,-0.151 ± 0.051
3,CTATAATA,-0.216 ± 0.025
4,AGGGGTAT,-0.325 ± 0.007
5,CAAGCATA,-0.168 ± 0.041
6,GTCGCGGA,0.0192 ± 0.071
7,AACATAGC,0.114 ± 0.085
8,GCATAGGC,-0.146 ± 0.027
9,CACATCCA,0.2832 ± 0.0021
10,ACGCCGTA,0.0433 ± 0.031
11,CCAAATAC,-0.0702 ± 0.00073
12,ACAACACT,0.37 ± 0.016
13,CTCGGAAA,-0.188 ± 0.0085
14,CTTGCAGA,-0.115 ± 0.051
15,GGATGTTA,-0.00674 ± 0.011
16,GTAAAAGA,0.0893 ± 0.015
17,ACCAAAGT,0.013 ± 0.064
18,TTCCTCAA,-0.237 ± 0.044
19,ACAGCTGG,0.0532 ± 0.048
20,AACCAGTG,-0.0282 ± 0.04
21,CGAAGCAG,-0.13 ± 0.046
22,GAAAGCGC,0.108 ± 0.052
23,GAACCTTC,-0.173 ± 0.04
24,CTAATTTA,-0.0858 ± 0.14
25,CCTAGACG,0.0311 ± 0.054

row,Sequence,PBM E-score of 8-mer
1,CACTGCAG,0.0659 ± 0.042
2,AGATTCGC,0.0914 ± 0.016
3,ATACCACG,-0.0283 ± 0.0036
4,ATGGCGTG,0.166 ± 0.033
5,CGTGTACA,-0.0554 ± 0.17
6,CACTTTAA,0.235 ± 0.065
7,CCGCCGCG,-0.0208 ± 0.05
8,ATCCTTTG,-0.257 ± 0.062
9,ACCTTTTA,0.122 ± 0.12
10,GTATGCAC,-0.00011 ± 0.075
11,CACTTTTC,0.275 ± 0.021
12,GATCGGCC,-0.203 ± 0.0054
13,CCTGGATA,-0.154 ± 0.034
14,ATGCCCGG,-0.155 ± 0.033
15,AAAATCCT,-0.137 ± 0.011
16,ACCAGCTC,-0.0667 ± 0.051
17,CGTCAACG,0.237 ± 0.0036
18,ACATCGCG,0.249 ± 0.019
19,TAAGTTAA,-0.0968 ± 0.031
20,CCTGCCGC,0.0701 ± 0.019
21,TCGGTAAA,-0.118 ± 0.0062
22,GATTGTGC,0.122 ± 0.013
23,ACTGACGA,-0.0694 ± 0.068
24,AGATACTC,-0.119 ± 0.09
25,AGTCTCCG,-0.162 ± 0.069

row,Sequence,PBM E-score of 8-mer
1,GAAAAATA,-0.166 ± 0.078
2,GCTGCCAC,0.191 ± 0.0065
3,AAGGACAT,-0.11 ± 0.029
4,GAGTACTC,-0.0401 ± 0.097
5,GCAGTGTA,-0.139 ± 0.063
6,TGGTGGAA,-0.00937 ± 0.0075
7,AACACTCA,0.323 ± 0.0094
8,AGGAGCCA,-0.0993 ± 0.012
9,ACAGGCCG,-0.0242 ± 0.021
10,CTGTCACA,0.4 ± 0.0052
11,AAAAATTA,0.0479 ± 0.016
12,GAAAGCCA,-0.235 ± 0.023
13,ATGCGTGC,0.0332 ± 0.014
14,GAATGTCC,-0.279 ± 0.0091
15,ATGAAGAC,-0.109 ± 0.044
16,AACTTTAA,-0.129 ± 0.17
17,TAGCTGGA,-0.1769 ± 0.00071
18,AAGGATCA,-0.022 ± 0.029
19,ATAAGGCA,-0.0131 ± 0.013
20,CTCGTGGA,-0.209 ± 0.18
21,GAGCGTGA,0.248 ± 0.021
22,GGGAGCTA,-0.182 ± 0.025
23,CGTACGCC,-0.166 ± 0.0083
24,ATGAGTTG,-0.0673 ± 0.11
25,ATGTAGAA,-0.291 ± 0.077

row,Sequence,PBM E-score of 8-mer
1,CAATCAAG,-0.209 ± 0.1
2,CACAGTTA,0.141 ± 0.032
3,AAATCGCC,0.1971 ± 0.0016
4,CGAAAAGA,-0.277 ± 0.1
5,ACTAGGCG,0.167 ± 0.052
6,CGAATCGA,0.201 ± 0.017
7,TGCAAACA,0.11 ± 0.022
8,ATCCCGCG,-0.042 ± 0.095
9,CGTTGCTC,-0.0637 ± 0.0068
10,GTTGTAGA,0.0094 ± 0.012
11,CGTGTCTC,0.00564 ± 0.025
12,AAGCAGAT,-0.0935 ± 0.026
13,ACGATACC,-0.0725 ± 0.0011
14,CGTACACA,0.0802 ± 0.041
15,TGCGATAA,0.288 ± 0.012
16,ATGTCACC,0.385 ± 0.015
17,CACTAACG,0.212 ± 0.02
18,CCTTCCTC,-0.148 ± 0.011
19,CGGTAAAA,-0.172 ± 0.0061
20,GACCTGCC,0.148 ± 0.0062
21,GCGTGACC,0.329 ± 0.038
22,GAATATTC,-0.0776 ± 0.032
23,AAGCCCAA,-0.237 ± 0.015
24,CACAGAGA,-0.0694 ± 0.036
25,CAACCGGA,-0.0889 ± 0.027

row,Sequence,PBM E-score of 8-mer
1,CAATCTAG,0.0154 ± 0.025
2,AACGTGGC,0.166 ± 0.05
3,ACTCGGGA,-0.142 ± 0.0029
4,CGATCCGC,-0.137 ± 0.12
5,AGTATTAC,-0.302 ± 0.048
6,CCCTCAGG,-0.215 ± 0.048
7,ACTGAAAT,0.209 ± 0.06
8,ATGATGTC,-0.13 ± 0.024
9,AGTTACTG,-0.0814 ± 0.12
10,AGAAATGG,0.00789 ± 0.085
11,CCTGGCTA,0.0268 ± 0.0048
12,CAGGAGTC,-0.113 ± 0.015
13,CACAAGGC,-0.0467 ± 0.053
14,TGAGCTCA,-0.117 ± 0.012
15,AGACTGGA,-0.0672 ± 0.019
16,AATGTCCG,-0.16 ± 0.054
17,CACATGTG,0.343 ± 0.026
18,CATCAACA,0.134 ± 0.061
19,AAGCGAAC,-0.0211 ± 0.029
20,ATACGACC,-0.0601 ± 0.011
21,CGCGCTCA,0.13 ± 0.034
22,CTGGGCTA,-0.101 ± 0.052
